Measured values taken from publication PMC5700166.
The list shows a part of the results, in another mix than the full data. The list includes weakly bound sequences.

These sequences were tested against T1, GST-Dm-Relish (UniProt Q94527) (assay: protein-binding microarray (PBM)). Conditions: PBM: ~300 nM protein, 6 mM HEPES pH 7.8, 80 mM KCl, 0.5 mM EDTA, 0.5 mM EGTA, 6% glycerol, 35 ng/ul poly-dIdC, 1% milk, 1 h, room temperature; high values mean tight binding; double strand, one strand shown.
T1 sequence: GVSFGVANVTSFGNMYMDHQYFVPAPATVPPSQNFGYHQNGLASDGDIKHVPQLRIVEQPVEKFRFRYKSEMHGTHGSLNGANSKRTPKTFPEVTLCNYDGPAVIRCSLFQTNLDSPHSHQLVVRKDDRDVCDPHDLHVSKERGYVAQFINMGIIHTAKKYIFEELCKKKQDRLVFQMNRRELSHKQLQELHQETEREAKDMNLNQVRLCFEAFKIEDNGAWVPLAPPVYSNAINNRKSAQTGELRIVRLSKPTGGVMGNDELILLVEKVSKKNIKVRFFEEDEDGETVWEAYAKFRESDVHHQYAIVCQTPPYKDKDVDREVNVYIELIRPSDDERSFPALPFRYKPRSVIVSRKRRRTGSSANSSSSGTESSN

| Sequence | binding signal [z-score] |
| --- | --- |
| CCGATTAACATCAATTCCCAACCTGATGTTAATCGGGTCTTGATTCGCTTGACGCTGCTG | 0.662 |
| CCGATTAACATCAAAAATCCCCCTGATGTTAATCGGGTCTTGATTCGCTTGACGCTGCTG | 10.1 |
| CCGATTAACATCAAAAACCCCCATGATGTTAATCGGGTCTTGATTCGCTTGACGCTGCTG | 9.82 |
| CCGATTAACATCAAAAACCCCCTTGATGTTAATCGGGTCTTGATTCGCTTGACGCTGCTG | 10.9 |
| CCGATTAACATCAGGGGAACCCCTGATGTTAATCGGGTCTTGATTCGCTTGACGCTGCTG | 10.5 |
| CCGATTAACATCATCAGGGGAAATGATGTTAATCGGGTCTTGATTCGCTTGACGCTGCTG | 2.39 |
| CCGATTAACATCAACCAATTCCCTGATGTTAATCGGGTCTTGATTCGCTTGACGCTGCTG | 0.721 |
| CCGATTAACATCAGGGAAACCCCTGATGTTAATCGGGTCTTGATTCGCTTGACGCTGCTG | 9.95 |
| CCGATTAACATCAGGGATTCCCCTGATGTTAATCGGGTCTTGATTCGCTTGACGCTGCTG | 11.2 |

The sequences below were run against T2, GST-Aq-NF-kB (UniProt A9Y5G7) (assay: protein-binding microarray (PBM)). Conditions: PBM: ~300 nM protein, 6 mM HEPES pH 7.8, 80 mM KCl, 0.5 mM EDTA, 0.5 mM EGTA, 6% glycerol, 35 ng/ul poly-dIdC, 1% milk, 1 h, room temperature; Ap Aiptasia and Nv Nematostella (sea anemones) / Co Capsaspora / Aq Amphimedon (sponge) / Dm Drosophila / Hu human; RHD is the Rel homology domain; high values mean tight binding; most listed sequences are background and not binding sites; double strand, one strand shown.
T2 sequence: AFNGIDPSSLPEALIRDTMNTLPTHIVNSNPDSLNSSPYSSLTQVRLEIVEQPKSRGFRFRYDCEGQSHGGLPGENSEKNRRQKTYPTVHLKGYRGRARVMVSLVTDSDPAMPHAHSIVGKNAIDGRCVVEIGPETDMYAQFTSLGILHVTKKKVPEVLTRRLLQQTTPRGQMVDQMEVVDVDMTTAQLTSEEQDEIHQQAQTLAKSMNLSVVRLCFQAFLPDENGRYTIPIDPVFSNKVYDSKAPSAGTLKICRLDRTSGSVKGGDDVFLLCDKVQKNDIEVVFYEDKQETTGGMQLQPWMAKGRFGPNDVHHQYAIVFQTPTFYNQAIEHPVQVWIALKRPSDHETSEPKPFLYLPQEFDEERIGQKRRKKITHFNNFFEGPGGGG

| Sequence | binding signal [z-score] |
| --- | --- |
| CCGATTAACATCAGGATCCCCCCTGATGTTAATCGGGTCTTGATTCGCTTGACGCTGCTG | 6.39 |
| CCGATTAACATCAGGGGTTTTACTGATGTTAATCGGGTCTTGATTCGCTTGACGCTGCTG | 5.84 |
| CCGATTAACATCATATTCCCCCATGATGTTAATCGGGTCTTGATTCGCTTGACGCTGCTG | 5.97 |
| CCGATTAACATCAATTCCCAACCTGATGTTAATCGGGTCTTGATTCGCTTGACGCTGCTG | 0.906 |
| CCGATTAACATCAGGCCATTCCCTGATGTTAATCGGGTCTTGATTCGCTTGACGCTGCTG | 4.37 |
| CCGATTAACATCAGGGGAGGTACTGATGTTAATCGGGTCTTGATTCGCTTGACGCTGCTG | 4.35 |
| CCGATTAACATCAAAAATCCCCCTGATGTTAATCGGGTCTTGATTCGCTTGACGCTGCTG | 9.28 |
| CCGATTAACATCAGGGGGTTGGATGATGTTAATCGGGTCTTGATTCGCTTGACGCTGCTG | 3.38 |
| CCGATTAACATCACTCTTCTCGGTGATGTTAATCGGGTCTTGATTCGCTTGACGCTGCTG | 0.148 |
| CCGATTAACATCAGGAAATACCCTGATGTTAATCGGGTCTTGATTCGCTTGACGCTGCTG | 9.37 |
| CCGATTAACATCACGGGGGGGGATGATGTTAATCGGGTCTTGATTCGCTTGACGCTGCTG | 5.29 |
| CCGATTAACATCAGGCAAGCCCCTGATGTTAATCGGGTCTTGATTCGCTTGACGCTGCTG | 5.11 |
| CCGATTAACATCAACATTACCCCTGATGTTAATCGGGTCTTGATTCGCTTGACGCTGCTG | 2.86 |
| CCGATTAACATCAAAAACCCCCATGATGTTAATCGGGTCTTGATTCGCTTGACGCTGCTG | 7.68 |
| CCGATTAACATCAATTTTCCCCCTGATGTTAATCGGGTCTTGATTCGCTTGACGCTGCTG | 6.79 |
| CCGATTAACATCAGGGGAGTTCATGATGTTAATCGGGTCTTGATTCGCTTGACGCTGCTG | 3.96 |
| CCGATTAACATCAAAAACCCCCTTGATGTTAATCGGGTCTTGATTCGCTTGACGCTGCTG | 9.31 |
| CCGATTAACATCAGGGGAACCCCTGATGTTAATCGGGTCTTGATTCGCTTGACGCTGCTG | 10.7 |
| CCGATTAACATCAATAAACCCCCTGATGTTAATCGGGTCTTGATTCGCTTGACGCTGCTG | 6.33 |
| CCGATTAACATCATCAGGGGAAATGATGTTAATCGGGTCTTGATTCGCTTGACGCTGCTG | 4.58 |

| Sequence | binding signal [z-score] |
| --- | --- |
| CCGATTAACATCAGAAAAATACCTGATGTTAATCGGGTCTTGATTCGCTTGACGCTGCTG | 3.17 |
| CCGATTAACATCAGAAACTTCCCTGATGTTAATCGGGTCTTGATTCGCTTGACGCTGCTG | 5.51 |
| CCGATTAACATCACGGGAAATTCTGATGTTAATCGGGTCTTGATTCGCTTGACGCTGCTG | 6.47 |
| CCGATTAACATCAACCAATTCCCTGATGTTAATCGGGTCTTGATTCGCTTGACGCTGCTG | 3.16 |
| CCGATTAACATCACAAATTTCCCTGATGTTAATCGGGTCTTGATTCGCTTGACGCTGCTG | 6.5 |
| CCGATTAACATCAGGGATTCTCATGATGTTAATCGGGTCTTGATTCGCTTGACGCTGCTG | 2.67 |
| CCGATTAACATCAGGGAAACCCCTGATGTTAATCGGGTCTTGATTCGCTTGACGCTGCTG | 10 |
| CCGATTAACATCACCTTGAACGGTGATGTTAATCGGGTCTTGATTCGCTTGACGCTGCTG | 0.542 |
| CCGATTAACATCAGTTTTCCCCATGATGTTAATCGGGTCTTGATTCGCTTGACGCTGCTG | 4.82 |
| CCGATTAACATCAAGGTTTCCCCTGATGTTAATCGGGTCTTGATTCGCTTGACGCTGCTG | 6.28 |
| CCGATTAACATCAAGAAAGTCCCTGATGTTAATCGGGTCTTGATTCGCTTGACGCTGCTG | 6.74 |
| CCGATTAACATCAGGGAGTCACCTGATGTTAATCGGGTCTTGATTCGCTTGACGCTGCTG | 3.63 |
| CCGATTAACATCAGGCTATCCCCTGATGTTAATCGGGTCTTGATTCGCTTGACGCTGCTG | 4.81 |
| CCGATTAACATCAGGGGGAAACCTGATGTTAATCGGGTCTTGATTCGCTTGACGCTGCTG | 7.94 |
| CCGATTAACATCACGAAAGTCCCTGATGTTAATCGGGTCTTGATTCGCTTGACGCTGCTG | 5.78 |
| CCGATTAACATCACGGAAAAAACTGATGTTAATCGGGTCTTGATTCGCTTGACGCTGCTG | 0.929 |
| CCGATTAACATCAGGGATTCCCCTGATGTTAATCGGGTCTTGATTCGCTTGACGCTGCTG | 11.5 |
| CCGATTAACATCAAGAATCCCCCTGATGTTAATCGGGTCTTGATTCGCTTGACGCTGCTG | 7.61 |
| CCGATTAACATCAGGAAACTACCTGATGTTAATCGGGTCTTGATTCGCTTGACGCTGCTG | 4.72 |
| CCGATTAACATCAACCCCAGCTCTGATGTTAATCGGGTCTTGATTCGCTTGACGCTGCTG | 0.585 |
